Data from the BET-seq Pho4 binding data (Le et al. 2018).
Some of the results follow. These are noisy estimates, calculated here from bound and input reads.

What follows are sequences tested against T1, Pho4 (S. cerevisiae) (UniProt P07270) (assay: relative binding free energy (BET-seq); higher = weaker binding). Details: reference: library average.
T1 sequence: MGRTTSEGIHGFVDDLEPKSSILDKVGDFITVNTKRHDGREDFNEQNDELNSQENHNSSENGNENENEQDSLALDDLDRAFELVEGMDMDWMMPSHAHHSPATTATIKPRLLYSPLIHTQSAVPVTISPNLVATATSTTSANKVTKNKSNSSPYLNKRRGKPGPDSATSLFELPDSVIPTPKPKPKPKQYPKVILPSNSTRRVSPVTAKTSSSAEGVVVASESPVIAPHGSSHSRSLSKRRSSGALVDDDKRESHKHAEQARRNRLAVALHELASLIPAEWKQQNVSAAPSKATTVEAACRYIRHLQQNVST

Sequence | relative binding free energy [kcal/mol]
TGTAGCACGTGGTTCC | -0.02
AGTTCCACGTGTTTGG | 0.05
CTTGTCACGTGTGGCG | 0.03
CTGTTCACGTGGTTTG | 0.33
TTGAGCACGTGTTTAG | -0.05
TGAATCACGTGAGTTT | 0.31
TATTGCACGTGGGGGC | -0.09
AGAGGCACGTGCGTTT | -0.13
TCGTTCACGTGGGTTT | 0.33
TATTGCACGTGGAATG | -0.09
AGTATCACGTGATTAG | 0.16
TGGCTCACGTGCCGGG | 0.01
GATTTCACGTGATTGA | 0.39
GGGAGCACGTGTTTTG | -0.02
GTGATCACGTGGTAAG | 0.14
GGGTTCACGTGGAATT | 0.54
GTCGGCACGTGGAATG | -0.03
TGAGGCACGTGCGTTT | -0.15
TCATACACGTGGGTGG | 0.06
GGGGGCACGTGCTAAG | -0.2
CGAGTCACGTGGTCTG | 0.05

Sequence | relative binding free energy [kcal/mol]
CTAGTCACGTGGTTGG | -0.01
TAATTCACGTGGCGTT | 0.29
TCGGGCACGTGTAGAG | -0.07
GTTATCACGTGCGCGG | -0.08
AGGCGCACGTGTTTGA | -0.22
AATGGCACGTGCTTTG | -0.27
TGGACCACGTGGGGAA | -0.14
GTGGCCACGTGGCAGG | -0.31
TACTTCACGTGTGGTT | 0.33
GATGACACGTGTGAGT | 0.1
ATAGGCACGTGGGGAT | -0.22
TAGGCCACGTGGTTAA | 0.04
TGTTACACGTGTTTTG | 0.12
GTTGGCACGTGGAGAT | -0.07
CTAATCACGTGTTGGT | 0.11
GATGGCACGTGACTGT | 0.04
AGTAGCACGTGATATG | 0.06
ATTGCCACGTGAGGAG | 0.06
ATCTGCACGTGGGTTC | 0.06
CGTTACACGTGGTGAT | 0.08
AATGGCACGTGTCAGT | -0.14

Sequence | relative binding free energy [kcal/mol]
TTTGGCACGTGGGTGC | -0.18
GGGGCCACGTGGTTCT | -0.02
TCGGGCACGTGCGAGT | -0.01
AAAGTCACGTGGTTAA | 0.12
TTGGCCACGTGAGTGT | 0.08
TGAATCACGTGATTTG | 0.27
TGTTGCACGTGCTCGT | -0.12
AGTGTCACGTGGAAAG | -0.01
TATGGCACGTGAGCGC | 0.22
TCTGGCACGTGTTGGA | 0.06
AAGTTCACGTGTAGTG | 0.34
GTGCGCACGTGTTATG | -0.15
GGAGTCACGTGTAGGG | 0.12
CTGGGCACGTGCGGCT | -0.09
GTATTCACGTGGAGGG | 0.29
GGGTGCACGTGGCGTC | -0.04
CGTTTCACGTGGTCAT | 0.27
AAGGGCACGTGGGATG | -0.14
GGAGGCACGTGCAAGG | -0.09
TCGTGCACGTGAGTTT | 0.19
CTATGCACGTGTTTAT | -0.03
